Laboratory results as given in paper PMC5540273 (PLoS ONE, 2017).
For some assays here: Most of the strong results are listed elsewhere, so they are rarer here than in the full data. The entries are a selection whose mix differs from that of the whole data set.

Legend:
Details in all cases: concentration: 1 μM,replicates: in singlicate; n = 1
BMPR1B = tested on: BMPR1B
BMPR2 = tested on: BMPR2
BMX = tested on: BMX
BRAF = tested on: BRAF
BRK = tested on: T1, BRK
T1 construct: gene PTK6

BRSK1 = tested on: BRSK1
BRSK2 = tested on: BRSK2
BTK = tested on: BTK
BUB1 = tested on: BUB1
CAMK1B = tested on: CAMK1B
CAMK1D = tested on: CAMK1D
CAMK1G = tested on: CAMK1G
CAMK1 = tested on: CAMK1
CAMK2A = tested on: CAMK2A
CAMK2B = tested on: CAMK2B
CAMK2D = tested on: CAMK2D
CAMK2G = tested on: CAMK2G
CAMK4 = tested on: CAMK4
CAMKK1 = tested on: CAMKK1
CAMKK2 = tested on: CAMKK2
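Further: KINOMEscan kinase panel screen.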

SMILES	%Inh (BMPR1B) [%]	%Inh (BMPR2) [%]	%Inh (BMX) [%]	%Inh (BRAF) [%]	%Inh (BRK) [%]	%Inh (BRSK1) [%]	%Inh (BRSK2) [%]	%Inh (BTK) [%]	%Inh (BUB1) [%]	%Inh (CAMK1B) [%]	%Inh (CAMK1D) [%]	%Inh (CAMK1G) [%]	%Inh (CAMK1) [%]	%Inh (CAMK2A) [%]	%Inh (CAMK2B) [%]	%Inh (CAMK2D) [%]	%Inh (CAMK2G) [%]	%Inh (CAMK4) [%]	%Inh (CAMKK1) [%]	%Inh (CAMKK2) [%]
O=C1NC(=O)C(c2ccccc2Cl)=C1Nc1ccccc1 [SB-376715]	0	0	21	0	5	26	40	40	0	46	12	5	0	13	0	27	4	7	29	15
O=C1NC(=O)C(c2ccc(Cl)cc2)=C1Nc1ccccc1 [SB-317661]	45	28	0	24	0	0	5	0	54	0	2	0	0	18	7	0	0	0	0	0
O=C1NC(=O)C(c2ccccc2)=C1Nc1ccc(Cl)c(C(=O)O)c1 [SB-390532]	0	31	4	0	15	0	0	0	57	29	0	0	0	0	0	0	2	0	0	0
CS(=O)(=O)c1ccccc1-c1nc(-c2ccc(F)cc2)c(-c2ccncc2)[nH]1 [SB-213663]	0	0	0	51	0	13	0	23	23	66	33	0	29	0	0	0	0	0	0	0
COc1cccc(C2=C(Nc3ccc(SC)cc3)C(=O)NC2=O)c1 [SB-331032]	7	45	0	24	0	0	0	0	20	19	26	30	76	0	6	11	5	4	25	1
COc1ccc(C2=C(Nc3cccc(Cl)c3)C(=O)NC2=O)cc1 [SB-326892]	0	5	15	0	0	4	22	0	0	0	5	0	0	0	0	3	0	7	1	0
O=C1NC(=O)C(c2ccc(Cl)cc2)=C1Nc1cccc(C(=O)O)c1 [SB-360737]	0	19	0	3	2	0	0	0	39	26	7	0	1	0	0	0	0	0	0	0
O=C1NC(=O)C(c2ccccc2)=C1Nc1cc(Cl)c(O)c(Cl)c1 [SB-390530]	22	45	0	0	0	0	0	26	0	7	0	0	6	0	0	4	4	0	0	0
CSc1ccc(NC2=C(c3cccc(Cl)c3)C(=O)NC2=O)cc1 [SB-341528]	0	0	2	0	3	0	16	0	100	0	0	6	15	0	0	0	6	0	0	1
O=C1NC(=O)C(c2ccccc2Cl)=C1Nc1cccc(C(=O)O)c1 [SB-390526]	0	1	12	0	12	9	0	4	9	39	7	0	1	2	0	0	10	0	0	1
Cc1ccc(C)c(Oc2nccc(-c3c(-c4ccc(F)cc4)ncn3C3CCNCC3)n2)c1.O=C(O)C(F)(F)F.O=C(O)C(F)(F)F.O=C(O)C(F)(F)F [SB-284852]	9	0	0	0	13	0	3	0	0	0	18	0	0	0	7	5	10	35	99.7	16
O=C1NC(=O)c2c1c(-c1ccccc1)cc1[nH]c3ccc(O)cc3c21	25	16	14	12	26	82	68	0	54	14	22	10	6	0	0	11	7	0	19	1
O=C1NC(=O)C(c2ccc(Cl)cc2)=C1Nc1ccc(O)c(Cl)c1 [SB-405367]	0	11	0	0	4	7	0	0	0	0	5	29	11	8	0	16	9	0	0	10
O=C1NC(=O)C(c2ccc(Cl)cc2)=C1Nc1cccc(O)c1 [SB-333613]	8	31	2	34	9	0	9	76	48	31	4	14	2	6	19	9	25	0	2	13
Cc1cc(C)cc(Oc2nccc(-c3c(-c4ccc(F)cc4)ncn3C3CCNCC3)n2)c1.O=C(O)C(F)(F)F.O=C(O)C(F)(F)F.O=C(O)C(F)(F)F [SB-284851]	0	0	0	0	0	0	7	0	0	0	0	0	0	0	0	11	7	0	27	17
O=C(O)c1ccc(-c2nc(-c3ccc(F)cc3)c(-c3ccncc3)[nH]2)cc1 [SB-202620]	33	21	0	89	0	0	17	0	11	0	2	29	9	0	13	5	11	28	16	1
